Experimental data: US11033519B2, “Drug combination with antitumor effects” (DONGGUAN ANHAO PHARMACEUTICAL CO., LTD., priority 2016, dated 2021)

Assays:
[1] = system: mouse melanoma B16; conditions: for RTV / Tumor inhibitory rate: CTX 60 × 1, DX1002 5 × 13; for Tumor inhibitory rate: based on tumor weight
Description: The administration volume of cyclophosphamide injection was per 10 g mouse via intraperitoneal injection. For the single use or the combined use of cyclophosphamide, on the next day of inoculation, cyclophosphamide was injected once. […] For the combination group of DX1002 and cyclophosphamide, DX1002 was firstly injected to the left side of peritoneal cavity, and then cyclophosphamide was injected to the right side of peritoneal cavity.
Each group includes 10 mice.

[2] = system: human colon cancer HT-29; assay: DX1002 combined with BON against human colon cancer HT-29 transplanted in nude mice; conditions: BON 1 × 7, DX1002 200 × 14; for RTV (d 15): relative tumor volume
[3] = system: human liver cancer huh-7; assay: DX1002 combined with sorafenib against human liver cancer huh-7 transplanted in nude mice; conditions: for Terminal body weight: nude mice with huh-7 tumor, sorafenib 20 mg/kg × 11 po, DX1002 100 mg/kg × 11 po, combination printed 10 × 11 + 100 × 11; for Terminal body weight / RTV (d 21): x ± SD; for RTV (d 21): relative tumor volume; for RTV (d 21) / Tumor inhibitory rate: sorafenib 20 × 11, DX1002 100 × 11 po
[4] = system: human ovarian cancer A2780; assay: DX1002 combined with paclitaxel against human ovarian cancer A2780 transplanted in nude mice; conditions: relative tumor volume, d 21; paclitaxel 10 × 11, DX1002 10 × 11; x ± SD
[5] = system: mouse liver cancer H22; assay: DX1002 singly used and combined with adriamycin against mouse liver cancer H22; conditions: for Tumor weight (g) x ± SD: adriamycin 3 × 6, DX1002 800 × 11

## O=P1(N(CCCl)CCCl)NCCCO1 (stereo not drawn) [CTX, cyclophosphamide]
[1]
  RTV: 1.38 ± 0.49
  Tumor inhibitory rate: 57.80%
[1]; mice with B16 tumor, CTX 60 mg/kg × 1, DX1002 5 mg/kg × 13
  Terminal body weight: 23.03 ± 1.34 g

## COc1ccc(/C=C(/C(=O)O)c2cc(OC)c(OC)c(OC)c2)c(O)c1O [DX1002, (E)-3-(2′,3′-dihydroxyl-4′-methoxylphenyl)-2-(3″,4″,5″-trimethoxylphenyl)-2-acrylic acid]
[1]
  RTV: 1.83 ± 0.72
  Tumor inhibitory rate: 44.04%
[2]
  RTV (d 15): 11.2985
[3]
  Terminal body weight: 22.8 ± 1.0 g
  RTV (d 21): 3.93 ± 2.16
  Tumor inhibitory rate: 58.81%
[4]
  RTV (d 21): 18.89 ± 6.10
[5]
  Tumor weight (g) x ± SD: 1.99 ± 0.53 g

## CNC(=O)c1cc(Oc2ccc(NC(=O)Nc3ccc(Cl)c(C(F)(F)F)c3)cc2)ccn1 [Sorafenib, sorafenib]
[3]
  Terminal body weight: 22.4 ± 0.5 g
  RTV (d 21): 4.71 ± 1.53
  Tumor inhibitory rate: 50.63%

## COc1cccc2c1C(=O)c1c(O)c3c(c(O)c1C2=O)C[C@@](O)(C(=O)CO)C[C@@H]3O[C@H]1C[C@H](N)[C@H](O)[C@H](C)O1 [adriamycin]
[5]
  Tumor weight (g) x ± SD: 1.96 ± 0.47 g
[5]; mice with H22 tumor, adriamycin 3 mg/kg × 6, DX1002 800 mg/kg × 11 oral
  Body weight (g) x ± SD: 21.4 ± 3.5 g

## bleomycin hydrochloride [BON]
[2]; hydrochloride
  Tumor inhibitory: 48.87%
[2]
  RTV (d 15): 8.167
